Measurements published in patent publication US20100093719A1, “PHARMACOKINETICALLY IMPROVED COMPOUNDS” (SURFACE LOGIX, INC., priority 2005, published 2010).
Where two headings read alike, the source gives them in different places. At least one compound was matched to its structure with a doubt left.

Key:
Format in all cases: biochemical
PDE-1 = assay: Phosphodiesterase inhibition PDE-1
Procedure: (§1) Phosphodiesterase inhibition was determined by methods known to one of skill in the art.

PDE-6 = assay: Phosphodiesterase inhibition PDE-6
Procedure: as §1

PDE-3 = assay: Phosphodiesterase inhibition PDE-3
Procedure: as §1

SMILES	IC50 (PDE-1)	IC50 (PDE-6)	IC50 (PDE-3)	IC50 (PDE-6; unit inferred)
CCCc1nc(C)c2c(=O)[nH]c(-c3cc(S(=O)(=O)N(C)CC(=O)N(C)CC(=O)N(C)C)ccc3OCC)nn12 [Compound 4]	25 nM			
CCCc1nc(C)c2c(=O)[nH]c(-c3cc(S(=O)(=O)N4CCCC4C(=O)N(C)C)ccc3OCC)nn12 (stereo not drawn) [Compound 5]	253 nM	7.4 nM		
CCCc1nc(C)c2c(=O)[nH]c(-c3cc(S(=O)(=O)N(C)CC(=O)N4CCOCC4)ccc3OCC)nn12 [Compound 6]	19 nM	4.8 nM	1900 nM	
CCCc1nc(C)c2c(=O)[nH]c(-c3cc(S(=O)(=O)N(C)CC(=O)N4CCN(C)CC4)ccc3OCC)nn12 [Compound 7]	33.5 nM	2.7 nM	1200 nM	
CCCc1nc(C)c2c(=O)[nH]c(-c3cc(S(=O)(=O)N(C)CC(=O)N(CC)CC)ccc3OCC)nn12 [Compound 8]	34.5 nM	3 nM	1250 nM	
CCCc1nc(C)c2c(=O)[nH]c(-c3cc(S(=O)(=O)N(C)CC(=O)N(C)CCN(C)C)ccc3OCC)nn12 [Compound 9]	96 nM	9.6 nM	2500 nM	
CCCc1nc(C)c2c(=O)[nH]c(-c3cc(S(=O)(=O)N(CC)CC(=O)N(CC)CC)ccc3OCC)nn12 [Compound 10]	8.3 nM	3.6 nM	1200 nM	
CCCc1nc(C)c2c(=O)[nH]c(-c3cc(S(=O)(=O)N(C)[C@@H](C)C(=O)N(C)C)ccc3OCC)nn12 [Compound 12]	14.8 nM	3.11 nM	712 nM	
CCCc1nc(C)c2c(=O)[nH]c(-c3cc(S(=O)(=O)N(C)[C@@H](C)C(=O)NC)ccc3OCC)nn12 [Compound 13]	40 nM		995 nM	7 nM
CCCc1nc(C)c2c(=O)[nH]c(-c3cc(S(=O)(=O)N(C)[C@H](C)C(=O)NC)ccc3OCC)nn12 [Compound 14]	25 nM	3.7 nM	700 nM	
CCCc1nc(C)c2c(=O)[nH]c(-c3cc(S(=O)(=O)N(C)C(C)(C)C(=O)NC)ccc3OCC)nn12 [Compound 15]	17.6 nM	2.93 nM	523 nM	
CCCc1nc(C)c2c(=O)[nH]c(-c3cc(S(=O)(=O)N(C)C4(C(=O)N(C)C)CC4)ccc3OCC)nn12 [Compound 16]	13 nM	3.8 nM	400 nM	
CCCc1nc(C)c2c(=O)[nH]c(-c3cc(S(=O)(=O)N[C@@H](C)C(=O)N(C)C)ccc3OCC)nn12 [Compound 17]	35 nM	2.9 nM	1100 nM	
CCCc1nc(C)c2c(=O)[nH]c(-c3cc(S(=O)(=O)N[C@H](C)C(=O)N(C)C)ccc3OCC)nn12 [Compound 18]	20 nM	3 nM	1700 nM	
CCCc1nc(C)c2c(=O)[nH]c(-c3cc(S(=O)(=O)NC(C)(C)C(=O)N(C)C)ccc3OCC)nn12 [Compound 19]	17 nM	2.86 nM	1300 nM	
CCCc1nc(C)c2c(=O)[nH]c(-c3cc(S(=O)(=O)N(C)CC(=O)NC)ccc3OCC)nn12 [Compound 21]	16 nM	1.9 nM	443 nM	
